Data reported in PubChem BioAssay AID493208 (National Center for Advancing Translational Sciences (NCATS), 2011).
In all, about 44,000 compounds went through this assay and about 340 (0.77%) were called active. Roughly 5% stayed inconclusive and do not appear here. The call rests on the fitted dose curve; in most records, active means well fitted inhibition curve with a large enough effect; inconclusive means small, poorly fitted or top-dose-only effect; inactive means flat fitted curve, though single readings scatter. This is one part of the list.

assay: Acumen qHTS Assay for Inhibitors of the mTORC1 Signaling Pathway in MEF (Tsc2-/-, p53-/-) Cells: Sytravon; conditions: phospho-rpS6 immunofluorescence/PI, 24 h; series mostly up to 38.3 µM; activity change, negative = inhibition: at the top concentration;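 further: plate controls were DMSO for no effect and rapamycin for full effect; nearly all actives have a fitted effect of over 50% in size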
Procedure, shortened: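 Plate MEFs (Tsc2-/-, p53-/-, empty vector) in DMEM/10% FBS; after 24 h add compound, incubate 24 h at 37 degree Celsius; fix in PFA/TX-100, block, stain phospho-rpS6 and 10 uM PI; scan at 488 nm; report % positive cells.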

Activity change, negative = inhibition, inactive:
CCN(CC)S(=O)(=O)c1ccc2c(c1)N(CC(=O)N1CCN(c3cc(Cl)ccc3C)CC1)C(=O)CO2 -0.622%
CCOc1ccc(CNC(=O)C2CCN(C3=NS(=O)(=O)C(c4ccc(C)cc4)=C3CC)CC2)cc1 -2.61%
COc1cc(NC(=O)c2cc(-c3ccccc3O)no2)cc(OC)c1OC 9%
CC(=O)Nc1nonc1-c1nnc(SCC(=O)Nc2ccccc2Cl)n1C 0.124%
COc1ccc(C2CC(=O)c3cc(-c4nc(-c5ccc(Cl)cc5)cs4)c(=O)[nH]c3C2)cc1 (stereo unspecified) 1.8%
CC(C)n1c(SCC(=O)c2ccc(F)cc2)nc2c(sc3ccccc32)c1=O -4.89%
COc1ccc(CCNC(=O)c2c(Nc3ccccc3C)sc(C(=O)c3ccccc3)c2N)cc1OC -3.8%
Cc1cccc2nc(Cn3c(=O)n(-c4ccccc4)c(=O)c4c5c(sc43)CCC5)cc(=O)n12 -0.549%
COc1ccccc1OCCCn1c(C2CC(=O)N(c3ccc(F)cc3)C2)nc2ccccc21 (stereo unspecified) -4.93%
CCOc1ccccc1NC(=O)CSc1nnc(CC)c(CC)n1 -7.6%
COc1ccc(-c2nn(C)c3sc(C(=O)Nc4cc(OC)c(OC)c(OC)c4)cc23)cc1OC -16.9%
CCCN(C(=O)c1c(C)oc2ncn(CC(C)C)c(=O)c12)c1ccccc1C 6.16%
CCN1c2ccccc2-c2nc(SCC(=O)Nc3cc(OC)cc(OC)c3)ncc2S1(=O)=O -11.3%
CCCOc1ccc(C(=O)Nc2cc(-c3nc4ccccc4[nH]3)ccc2C)cc1 9.32%
COc1cccc(CN2CCCN(Cc3ccc(F)cc3)S2(=O)=O)c1 -7.56%
COc1cccc(CNC(=O)c2cc3cc(C)ccc3n2C)c1 -6.53%
Cc1ccc(O)c(NC(=O)C2=CC(c3cccs3)=NS(=O)(=O)N2C)c1 -6.3%
Cc1ccccc1OCC(=O)Nc1nnc(SCc2cc(=O)n3cccc(C)c3n2)s1 0.453%
COc1ccc(C)cc1NC(=O)C1CCN(S(=O)(=O)Cc2ccccc2)CC1 3.79%
Cc1c(NC(=O)C(C)(C)C)cccc1-c1nc2ccccc2s1 -3.14%
Cc1ccc(-n2nc(C(=O)N3CCN(c4cc(C)ccc4C)CC3)c3c4ccccc4n(C)c3c2=O)cc1 -5.34%
CCOc1ccccc1NC(=O)Cn1c(=O)n(-c2ccc(Cl)cc2)c(=O)c2oc3ccccc3c21 -0.403%
Cn1cc(S(=O)(=O)N2CCc3ccccc32)cc1C(=O)Nc1ccc(C(F)(F)F)cc1 -1.7%
CC1Cc2cc(S(=O)(=O)CCC(=O)Nc3ccc(F)cc3Cl)ccc2N1C(=O)C1CC1 (stereo unspecified) -4.12%
CCN(CC)c1ccc(NC(=O)Cn2cc3c(n2)CCCC3)c(C)c1 -14.1%
CCc1ccc(NC(=O)CSc2nc3c([nH]c4ccccc43)c(=O)n2C)cc1 1.05%
Cn1c(=O)n(C)c2cc(N3CCCCC3)c(NC(=O)Nc3ccc(Br)cc3)cc21 -18.8%
Cc1ccc(CNC(=O)C2CCCN(c3nn4cc(-c5ccc(C)cc5)nc4s3)C2)cc1 (stereo unspecified) 1.91%
Cc1ccc(-n2c(=O)c3ccc(C(=O)NCc4ccccc4Cl)cc3n(Cc3cccc(F)c3)c2=O)cc1 -0.505%
COc1ccc(N2CCN(C(CNC(=O)c3c(F)cccc3F)c3ccc4c(c3)OCO4)CC2)cc1 (stereo unspecified) 1.46%
CCOC(=O)c1cc2c(=O)n3ccccc3nc2n(CC2CCCO2)c1=NC(=O)c1ccccc1OCC (stereo unspecified) -1.21%
CCOc1ccc(-n2cc(-c3ccccc3)c3c(NCc4ccccc4)ncnc32)cc1 6.94%
COC(=O)Cc1c(C)c2ccc3c(c2oc1=O)CN(Cc1ccc(Cl)cc1)CO3 -2.82%
COCCn1c(SCc2ccccc2F)nc2c([nH]c3ccccc32)c1=O -6.48%
Cc1ccc(NS(=O)(=O)c2cn(C)c(C)n2)c(Br)c1 -4.42%
COc1ccc(CNC(=O)C2CCN(S(=O)(=O)N3CCC(C)CC3)CC2)c(OC)c1 1.59%
COc1cc(CN(C(=O)c2ccc(C)cc2)C2CCS(=O)(=O)C2)cc(OC)c1OC (stereo unspecified) 0.628%
Cc1cccc(CNC(=O)c2ccc(Cn3c(SCc4cccc(F)c4)nc4cccnc43)cc2)c1 0%
COc1ccc(NC(=O)CCn2cnnn2)cc1 -4.44%
COc1cccc(NC(=O)C2CC(=O)N(c3ccc(Br)cc3)C2)c1 (stereo unspecified) 11.9%
Cc1ccccc1OCc1nnc(SCc2cc(=O)c3cc(F)ccc3[nH]2)n1C 0.566%
Cc1ccc2c(c1)c1c(c(=O)n(Cc3ccccc3)c(=O)n1Cc1cccc(F)c1)n2C -6.49%
N#C/C(=C\c1cccc(F)c1)c1nc(-c2cc3ccccc3oc2=O)cs1 1.23%
CCC1CN(CC(=O)NCc2cccc(Br)c2)c2ccccc2S1 (stereo unspecified) -17%
Cc1ccc(S(=O)(=O)c2cn(CC(=O)Nc3ccc4c(c3)OCO4)c3ccc(C)cc3c2=O)cc1 -9.95%
COc1ccc(-c2nc3ccccc3o2)cc1NC(=O)c1cc([N+](=O)[O-])ccc1N1CCOCC1 -6.61%
COc1ccc(-c2ccc(CCC(=O)O)n2-c2ccccc2C(F)(F)F)cc1 -4.32%
CCc1nnc(SCC(=O)Nc2ccc(OC)c(OC)c2)c2cc3occc3n12 0.19%
CCc1ccc(N2CC(C)Cn3c2nc2c3c(=O)n(CC(=O)O)c(=O)n2C)cc1 (stereo unspecified) -0.416%
CCOc1ccc(-c2cc(C)n3nc(C(=O)Nc4ccc(C)c(C)c4)cc3n2)cc1 -18.3%
COC(=O)Cc1c(C)nc2nc(NCc3ccc(Br)cc3)[nH]n2c1=O -0.744%
CCOC(=O)CN(Cc1ccccc1)C(C(=O)NC1CCCCC1)c1ccccc1 (stereo unspecified) -14.9%
Cc1cccc(C)c1NS(=O)(=O)c1ccc(NS(=O)(=O)c2ccc3c(c2)OCCO3)cc1 -5.1%
O=C(Nc1noc2ccccc12)c1ccc(F)cc1 2.55%
CCOC(=O)c1ccc(NC(=O)C2(S(=O)(=O)c3ccc(Cl)cc3)CC2)cc1 -17.6%
COc1ccc(CNC(=O)c2cc(=O)c3cc(C)ccc3o2)cc1 -11.9%
C=Cc1ccc(COc2ccc3oc(-c4ccccc4)c(C(=O)OCC)c3c2)cc1 -9.07%
COc1cccc(CNC(=O)CSC2=Nc3ccccc3C3=NC(C(C)C)C(=O)N23)c1 (stereo unspecified) 4.23%
Cc1ccccc1NC(=O)CCC(=O)N1CC(C)Sc2ccccc21 (stereo unspecified) 0%
Cc1cccc(N2CCN(C(=O)CCS(=O)(=O)c3ccc4c(c3)oc(=O)n4C)CC2)c1C -2.71%
CCOC(=O)COc1ccc([N+](=O)[O-])cc1-c1ccnc2cc(-c3ccc(C)cc3)nn12 -7.34%
